Measurements published in the RNAGym collection of RNA variant scans (doi:10.7554/elife.90254).
Read counts are not given, so values of variants with three or more changes are uncertain.

B1: LINE1-full (parent)
chain: UACGUAGGUGGUUUUCCCCUGAUAGUGCUAAGGGGGCCUGGAAGUUUGGACUGGGCAGAGCUCAACACAGCGUGGCAAAGUGGCUGUGGCUAGACUGCCUCUCUGGAUUCCUCGUCACUCAGCAGGGCAUCUCUGAGAGAAAUGCC

Variants of: B1
Test: self-cleavage, relative activity (ratio to wild type); higher = more cleavage; in vitro, sequencing; the parent is a self-cleaving ribozyme

Variant	self-cleavage
U15C A65G A92U A142G	0.08
U20C G34C U47A C113A	1.48
A22U G83A U100C	1.3
U73A G125U U134C	1.62
U5C A42G C56U A117U	0.87
U15C A67G A94G	0
G40A A117U U119A A138G	1.39
U15C G32A U96A G144A C145U	0.02
A43C C51U U96A	0.05
U9C U26C U91A	0.75
U81C U108C A142G U143C	0.88
G4A G44U U134C	1.23
U39C A59U C84U C95G A117G A124U A129U U132C U134C	0.16
A43G U62C A129G	0
U9C U20C U39A U62C A65U A121C	0.27
U39A A78G U81C	2.3
C56A A64G A79G U85C	0.03
U14A A22U A64G A69C U112A	0.45
U5A U15C U112C	1.28
U1C U45C G88C	0.05
A42G G44A U91C	0.97
U13C A107G G126A	1.16
A57U A79U A142G	0.14
U1C U46C U108C A140G	0.92

Variant	self-cleavage
U45C A67G A78G	0.2
U85C U96C A117G	0
G32A A50G G106U	0.57
U15A U81C A129U	0.32
G83U A94G C99U	0.11
A24G U108C A138G	2.21
U9C U15C U20C U47C G80A A142G	1.87
A67G C71U U87C	1.95
G7A A43G U62C C76U A124G	0.04
U1G U13A U104C G139A	1.25
U108A U132C U134A	0.79
U15C U62A U109C	0.04
U12C U73C A94G	0.42
U12A G55U A117C	0.51
A22G U130A A141G	1.61
U46G A50G U102C	1.31
U46G U115C A129G	2.04
U12C U20A A65U U96A	0.03
C28A A77G A79G G88A U130C U134C A142G	0.09
G7A U73A A136U	1.97
G11A U13C A64G A79G A142U	0.39
A30U U52C U143A	1.41
U20C U26C U100C C118U	2.22
U14C U62C U119C	0.19

Variant	self-cleavage
G7U A42G A124U	1.78
G4A U39C G72A A124G A140G	0.05
A43G U52C A136U A141G	2.04
U14C U26C C84U	0.27
G11A C113U A140G A142G	0.98
U39C U73C U134C	0
A78G U85A A140G	0.06
A67G A94U C110A	0.18
U13C A42U A94U	0.36
A42U U47A A50G A59G U96C	0.19
A42G G58U U73A U100C A138U	0.03
C3U U39A A59G	0.27
U12G U47A C61U U62C U96G A140G	0.05
A67G G106A U119C	0.65
U5C U100A A140G	0.83
A30U C76U A140G A142G	1.44
A94U A107G A136G	0.3
U62A A77G A78G	0.1
A2U A67G A77U A121G	0.41
G55C A121C U143C	0.18
U12G A31G U102C U104A	0
A57U A141G U143C	0.12
G4A U15C U29A A142G	0.27
U1C C84A A94U	0.12

Variant	self-cleavage
G35A U39C U91C	0.35
U15C U29C A138G	1.81
U85A A94G A124G	0.08
G127U A136G A138U	1.39
U62A A69G U102G	0.51
G40A A129U A142G	1.68
U29C U62A A141G	0.07
C19G U46C U81C	0
A117U U119C C123U	1.59
U14C U132C A141G	1.77
U15G U46C A59G G74A	0.27
G7A C17U A57G A64C	0.32
U26C A117G U143C	1.6
U81A U91A G122A A138U	1.07
G7A A64U U115A A141G	0.46
U15C G72A U108C	1.98
A24G G88A A94U C116A G126A A129G	0.03
U9A U62C A124G	0.24
G8A G127U A138U	1.21
A43G A78U G105A U112C C146A	2.52
U91C A136G G139A	0.46
U85A U119A U134A	0.07
U47C U102C G127A	2.02
A43U A94U G127A	0

Variant	self-cleavage
U45A U85A U87A U102C	0.16
U26G U73C U87C	0
U12G U96A A124U	0.03
U15C U23A A31U U62C A65U A78G	0.13
U9C U39C U96A	0.1
U62C U87A A138G	0.03
C18U U20A A92G	0
U14C U62C A79G C101U	0
U29A G55A A69C	0.03
A30G A50U U87A U109C A140G	0
A24U U100C A121G	0
U87A U96C A140G	0.12
U23C A42G A64U G72A U132A G135C	0.39
U26C U46C C101A	1.07
U5A U14C A69U	0.12
A43G U87A U108C G114A	0.17
U14C A30G U62C	0
U1C C3U U13C C61U A64G	0.13
U12C U96G A124U A140G	0
A59G U109A A141G	0
U14C U52A U132C U143C	1.86
A50C A64G G105A	0.29
U62C A117G A138G U143C	0
A50G U52G A94G	0

Variant	self-cleavage
U23A G54A U108C U130C	0.84
U5A A42G U45C U52A	0.77
U26G U73A U87C	0.17
U15A A64C U73C C131U	0.22
A2G G122U A142G	1.08
U13A U102C U108C A140G	1.15
U23C U46A A64G G86U U132C	0.06
A107G U115G U132C	0
A2G A124U A141G	0.47
U20C U62C G144U	0.07
U13A U15C A141G	1.94
U73C A94G U115A	0.69
G75A A94U U96C	0.06
U23C U100A A138G	1.26
G60A A65G U134C	0.05
U12G U15C A121G A140G	0
U14C C19U A59G A92G A129G	0.51
U9A A64G C118G	0.2
U12C G44U U73A U132C A140G	2.14
A31G A65U A77G U91C	0.42
U15A A42G U47G C103A U132A	0.71
U9A A77U U115C U143C	2.06
U47A U85G U102C	0.15
U12C U29C A43G A117G A129U	0

Variant	self-cleavage
A57G C118U A129G	0.9
U46C C66U A142U	0.05
A43G G60U A142G	0.03
U20A U45C A65G A142G	0.17
U20C U73C A140G	1.11
U12A C18U A43G C103U	0.77
U20C A92U U119C A138G A141C	0.72
A57G U100C U112C A140G	1.41
G48U U108C A124G	1.15
A22G U91A A117G	0
A59G U102C A124U	0.09
U62C A67G U109A U115C A121U	0
C19U A30G A77U U91C	0.91
A2U A57U A79G	0.13
U39C A59G C145U	0.33
U15A U96C G97A	0.09
U14C A22G A59U U81C	0.89
A50G C111U U130C U143A	0.99
U108C U115C G126A	2.44
U23C U29C U143C	1.53
U20C A79G U108C	1.12
U85C U115C A117G	0
U29C A69G G74A U102C	0.78
